Test results reported in ChEMBL document CHEMBL1157539, “Thousands of chemical starting points for antimalarial lead identification” (Nature, 2010).
The full ranking holds about 13,000 compounds; the median of “IFI” is about 4, and the highest 2% start at about 17. The list shows a part of the results.

experiment: GSK_TCMDC: Inhibition Frequency Index (IFI). The number of non-kinase HTS assays where a compound showed > 50 % inhibition, expressed as a percentage of the number of such assays in which the compound was tested (-0 is zero); format: functional

| Compound | IFI [%] |
| --- | --- |
| O=C(NCCCCCN1CCC(c2c[nH]c3ccccc23)CC1)c1ccc(Cl)c(Cl)c1 | 7.69 |
| O=[N+]([O-])c1cccc(CNCC2CCN(Cc3ccc(-c4ccccc4)cc3)CC2)c1 | 6.34 |
| CCNC(=O)c1ccc(-n2nc(C)cc2-c2ccccc2)cc1 | 0.95 |
| CC(C)C[C@@H](/C=N/N1CCOC1=O)NC(=O)[C@H](CC(C)C)NC(=O)c1ccc(F)cc1 | 2.73 |
| CC(C)(C)c1ccc(CNC(=O)c2cc(CNC3CCNCC3)ccc2O)cc1 | 1.42 |
| N#Cc1ccc(Sc2nnc(-c3ccccc3Cl)n2CC2CCCCC2)cc1[N+](=O)[O-] | 9.15 |
| COc1ccc2nccc(NC(=O)C3(O)CCC(NCc4ncc5c(c4Cl)OCCO5)CC3)c2n1 (stereo not drawn) | 3.7 |
| CSc1sc(NC(=O)Nc2cccc(C(F)(F)F)c2)cc1C#N | 17 |
| CC1CCN(CC[C@H]2CCCN2S(=O)(=O)c2cccc(NC(=O)Nc3ccc(C(F)(F)F)cc3)c2)CC1 | 3.62 |
| Cc1cccc2nc(-c3cccc(-c4cccc(CNCC5CCCO5)c4)c3)[nH]c12 (stereo not drawn) | 4.95 |
| O=C(Nc1ccon1)c1cc(-c2cccnc2)nc2ccc(Br)cc12 | 4.41 |
| Cc1ccccc1C1CCN(C2CCC(NC(=O)C3=Cc4ccccc4OC3)CC2)CC1 (stereo not drawn) | -0 |
| COc1ccc(C2C(C(=O)Nc3ccc(C)c(F)c3)c3cc(OC)c(OC)cc3C(=O)N2C)cc1 (stereo not drawn) | -0 |
| CCCC(CNCc1cccc(I)c1)CNc1cc(=O)c2ccccc2[nH]1 (stereo not drawn) | 4.29 |
| CC(C)(O)CC(C)(C)c1cc(Cl)ccc1O | 0.76 |
| Cc1cc(C)c(C(=O)Nc2ccc3nc(C)cc(N)c3c2)c(C)c1 | 0.7 |
| O=C(/C=C/c1cccs1)NCC(NCCCNc1cc(=O)c2ccccc2[nH]1)c1cc(Br)cc(Br)c1 (stereo not drawn) | 5.88 |
| COc1ccc(CNC2Cc3ccccc3C2)cc1-c1ccc(S(=O)(=O)NCCc2ccccn2)s1 | 8.41 |
| CCc1c(CCNCCc2cccc(CCNCCc3ccc(OC)c(OC)c3CC)c2)ccc(OC)c1OC | 12.2 |
| OC(CN(Cc1ccccc1)Cc1ccccc1)Cn1c2ccc(Cl)cc2c2cc(Cl)ccc21 (stereo not drawn) | 1.47 |

| Compound | IFI [%] |
| --- | --- |
| CCCC(C)N(Cc1ccc(C(C)(C)C)cc1)C(=O)c1ccc(OC)cc1 (stereo not drawn) | 2.21 |
| Cc1ccc(NC(=O)Nc2ccccc2)cc1-c1ccc(C(=O)Nc2ccncc2)cc1 | 25.7 |
| COc1cc2c(cc1C(F)(F)F)N(C(=O)Nc1cccc(-c3ccc(CN(C)C)cc3)c1)CC2 | 6.06 |
| COC(=O)CCCCOc1cc(Cc2cnc(N)nc2N)cc(OC)c1OC | 0.74 |
| c1ccc(CCNc2ccnc(Nc3ccc4[nH]nnc4c3)n2)cc1 | 3.23 |
| CCC(=O)c1ccc(-c2ccc(=O)n(CC(=O)N(CCN(CC)CC)Cc3ccc(-c4ccc(C(F)(F)F)cc4)cc3)n2)cc1 | 7.48 |
| CCCNc1nc(NCc2c(C)cccc2C)nc(NC(C)(C)C)n1 | 8.2 |
| CNc1ccc(CNCc2ccc(-c3ccc(-c4nc5cccc(C)c5[nH]4)cc3)cc2)cc1 | 11.3 |
| CC(C)NC(C)(C)CN(Cc1ccc(-c2ccc(C(F)(F)F)cc2)cc1)C(=O)Cn1c(CCc2cccc(F)c2F)nc(=O)c2ccccc21 | 8.03 |
| COc1ccc(-c2cccc(NC(=O)c3ccc(Cl)cc3)c2)cc1CN1CCNCC1 | 7.77 |
| COc1cc(CNC[C@@H](O)[C@H](Cc2ccccc2)NC(=O)c2cc(C3CCCC3)cc(N3CCCCS3(=O)=O)c2)cc(OC)c1 | 12.1 |
| COc1ccc(C=NN=c2cc[nH]c3ccccc23)c2ccccc12 | 5.52 |
| CC(=O)N1CCC(C(=O)Nc2ccc(-c3cccc(-c4nc5cc(C(F)(F)F)ccc5[nH]4)c3)cc2)CC1 | 5.61 |
| N#Cc1ccc(CN2CCCN(Cc3cccc(NC(=O)c4cc5ccccc5s4)c3)CC2)cc1 | 7.03 |
| CCCCCCNC(=O)C1Cc2c([nH]c3ccc(C)cc23)C2(CCN(Cc3ccccc3)CC2)N1 (stereo not drawn) | 4.83 |
| COc1ccccc1-c1ccc2nnc(SCC(=O)Nc3ccc4c(c3)OCCO4)n2n1 | 0.9 |
| O=C(Nc1ccc(CCNCCCc2ccccc2)cc1)Nc1ccc(Cl)c(Cl)c1 | 10.2 |
| COc1ccc(CCCON2C(=N)N=C(N)NC2(C)C)cc1 | 3.85 |
| C[C@@H](N/C(=N\c1ccc(-c2ccccc2)cc1)Nc1ccc(C#N)cc1O)c1ccc(Br)cc1 | 0.73 |
| Cc1ccc(C)c2sc(N(CCCn3ccnc3)C(=O)C=Cc3cccs3)nc12 | 4.26 |

| Compound | IFI [%] |
| --- | --- |
| COc1ccc(-c2ccc(CNC(=O)c3ccc(Cl)cc3)c(F)c2)cc1CN1CCCN(C)CC1 | 11.4 |
| O=S(=O)(c1ccc2cc[nH]c2c1)N1CCC[C@@H]1CCN1CCC(c2c[nH]c3cnccc23)CC1 | 4.93 |
| O=C(Nc1cccc(-c2cc(-c3c(Cl)cccc3Cl)no2)c1)c1cncc(-c2cccs2)c1 | 0.85 |
| Cc1ccc(C2(CN3CCC(NC(=O)c4n[nH]cc4Cl)CC3)CCCCC2)cc1 | 8.33 |
| CSC1=NC(C)(C)CC2(CC(c3cccc(C)c3)c3cc(Cl)c(O)cc3O2)N1 (stereo not drawn) | 3.47 |
| CCOc1cc(C(=O)NC2CCN(Cc3ccccc3)C2)ccc1-c1nc2cc(Cl)ccc2[nH]1 (stereo not drawn) | 2.14 |
| O=C(Nc1ccc(Cl)cc1)Nc1ccc(-c2ccc(-c3nc4ccccc4[nH]3)cc2)cc1 | 1 |
| O=c1c(Br)ccccc1Br | 11.6 |
| CCc1ccc(C2CCN(CCCCNC(=O)c3ccc(NC(=O)c4ccc(Cl)cc4)cc3)CC2)c(OCC(=O)OC)c1 | 7.21 |
| c1ccc(-c2nc(Nc3nc4ccccc4[nH]3)[nH]c2-c2ccccc2)cc1 | 5.38 |
| Cc1nc2nc(N)nc(N)c2c(C)c1Cc1ccccc1I | 4.08 |
| C[C@@H](Oc1cc(-n2cnc3cc(SCCN4CCN(C)CC4)ccc32)sc1C(N)=O)c1ccccc1Cl | 13.7 |
| O=[N+]([O-])c1cccc(/C=N/Nc2ccnc3cc(F)ccc23)c1 | 1.49 |
| O=C(COc1ccccc1)NC1CCN(c2ccnc3cc(Cl)ccc23)C1 (stereo not drawn) | 3.08 |
| CC(C)Cc1cn(-c2nc(C(=N)N)cs2)c2cc(Cl)ccc12 | 23.9 |
| CN1CCCc2ccc(NC(=O)c3cc(-c4ccc(Cl)cc4)cs3)cc2C1 | 6.9 |
| Cc1cccc2nc(-c3cccc(-c4cccc(NC(=O)c5cccnc5)c4)c3)[nH]c12 | 3.74 |
| O=C(Nc1ccc(Oc2ccccc2)cc1)N[C@H]1CCN(Cc2ccc(OCCCN3CCCCC3)cc2)C1 | 7.86 |
